From the supplement of paper PMC9135407 come the findings set out here.

In this assay the test system is primary human hepatic stellate cells (donor 1). Put plainly: scaled lipid accumulation score (0 = DMSO-like, 1 = nortriptyline-like); higher = stronger HSC inactivation (lipid re-accumulation), active = hit call of the paper. The note with it: 48 h.
Where [1] appears, read: library stock concentration: 10 mM.
[2] abbreviates: library stock concentration: 3.33 mM.
Setting [3] is: library stock concentration: 4.8 mM.
[4] abbreviates: library stock concentration: 1 mM.
Where [5] appears, read: library stock concentration: 7.7 mM.

The structures appear in SMILES notation. Several values for one entry are separate records, joined by “and”; a condition that tells them apart may be missing. Identical values can stand only once. Counter-ions that a name gives are not always drawn. Screen size: about 5,800 compounds; about 620 (11%) showed activity.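 The calls were made as follows: active = score above a cut-off or among the top three wells of a plate; in these data no inactive exceeds 0.85.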 This is a selection; strong and weak results do not stand in their true shares. A value given as a limit tells only on which side of the number the result lay.

For `C(=C\c1ccccc1)/CN1CCN(CCOC(c2ccccc2)c2ccccc2)CC1`, the “scaled lipid accumulation score” value under setting [1] was inactive: 0.301. On the same count and under the same terms, with `CCCC[N+]1(C)[C@@H]2C[C@@H](OC(=O)[C@H](CO)c3ccccc3)C[C@H]1[C@@H]1O[C@@H]12` (single isomer, unassigned; (-)) [(-)-Scopolamine,n-Butyl-, bromide] the figure was inactive: ≤ 0. `CCCC[N+]1(C)[C@@H]2C[C@@H](OC(=O)[C@H](CO)c3ccccc3)C[C@H]1[C@@H]1O[C@@H]12` (single isomer, unassigned; (-)) [Butylscopolamine Bromide]: the “scaled lipid accumulation score” value under setting [2] was inactive: 0.04 and the “scaled lipid accumulation score” value under setting [1] is inactive: 0.081.

With `C[C@@H]1CN([C@H]2CC[C@](C#N)(c3ccc(F)cc3)CC2)CC[C@]1(C(=O)O)c1ccccc1` [Levocabastine hydrochloride], the “scaled lipid accumulation score” value is inactive: ≤ 0. Turning to `C[C@@H]1CN([C@H]2CC[C@](C#N)(c3ccc(F)cc3)CC2)CC[C@]1(C(=O)O)c1ccccc1` [Levocabastine HCl], under setting [3], the “scaled lipid accumulation score” value was inactive: 0.001. For the compound `C[N+]1(C)C2CCC1CC(OC(=O)c1c[nH]c3ccccc13)C2` (stereo not drawn) [3-Tropanylindole-3-carboxylate methiodide], the “scaled lipid accumulation score” value under setting [1] is inactive: ≤ 0. Still for that read-out and setting: the figure for `N#C/C(=C\c1ccc(O)c(O)c1)C(N)=S` [Tyrphostin 47] is inactive: ≤ 0.

As to `N#C/C(=C\c1ccc(O)c(O)c1)C(N)=S` [AG213 (Tyrphostin 47)], for the setting “library stock concentration: 22.7 mM”, the “scaled lipid accumulation score” value is inactive: 0.005. As to `c1ccc2sc(C3(N4CCCCC4)CCCCC3)cc2c1` [BTCP hydrochloride], under setting [1], the “scaled lipid accumulation score” value was inactive: 0.74. Same read-out and setting: the figure for `c1ccc2sc(C3(N4CCCCC4)CCCCC3)cc2c1` [BTCP maleate] is inactive: 0.248. On the same count and under the same terms, with `COc1cc(N)c(Cl)cc1C(=O)NC1CN2CCC1CC2` (stereo not drawn) [Zacopride] the figure was inactive: ≤ 0; with `COc1cc(N)c(Cl)cc1C(=O)NC1CN2CCC1CC2` (stereo not drawn) [Zacopride hydrochloride], inactive: ≤ -0.006; with `COc1cc(OC)c(OC)cc1C=O` [Asarylaldehyde], inactive: 0.084.

Regarding `COc1cc(OC)c(OC)cc1C=O` [Asaraldehyde], the “scaled lipid accumulation score” value by setting is: under setting [2], inactive: 0.002; under setting [1], inactive: ≤ 0. For the compound `C[N+]1(C)CCCC(OC(=O)C(O)(c2ccccc2)c2ccccc2)C1` (stereo not drawn) [Cantil], the “scaled lipid accumulation score” value under setting [1] was inactive: ≤ 0.

As to `C[N+]1(C)CCCC(OC(=O)C(O)(c2ccccc2)c2ccccc2)C1` (stereo not drawn) [Mepenzolate bromide], the “scaled lipid accumulation score” value was inactive: ≤ 0. Moreover, the “scaled lipid accumulation score” value under setting [3] was inactive: ≤ -0.001. Further, the “scaled lipid accumulation score” value under setting [1] is inactive: ≤ 0. Consider `C#CC(C)(O)CC` (stereo not drawn), for which the “scaled lipid accumulation score” value under setting [1] is inactive: ≤ 0. Take `CN1C2CCC1CC(O)C2` (stereo not drawn) [Tropine]: the “scaled lipid accumulation score” value is inactive: ≤ 0. Turning to `O=C1C=C2C(C(C)=C1O)=CC=C3[C@]2(CCC4([C@@H]5C[C@@](CC[C@@]5(CC[C@]34C)C)([C@@](O)=O)C)C)C` (stereo partly drawn) [Celastrol], the “scaled lipid accumulation score” value runs as follows: (library stock concentration: 2 mM) active: 1.14; under setting [1], active: 1.14.

Consider `COc1ccc(CNC(=O)/C=C/c2ccc3[nH]cc(CCN(C)C)c3c2)cc1`, for which the “scaled lipid accumulation score” value under setting [1] was active: 1.03.

On to `NC1CCc2cc(O)c(O)cc2C1` (stereo not drawn), for which the “scaled lipid accumulation score” value (library stock concentration: 27.9 mM) is inactive: 0.022. Regarding `NC1CCc2cc(O)c(O)cc2C1` (stereo not drawn) [6,7-ADTN hydrobromide], the “scaled lipid accumulation score” value under setting [1] is inactive: ≤ -0.07. With `COc1ccc2[nH]cc(C3=CCNCC3)c2c1.COc1ccc2[nH]cc(C3=CCNCC3)c2c1.O=C(O)CCC(=O)O`, the “scaled lipid accumulation score” value under setting [1] was active: 1.68. For `Cc1sc2c(c1C)C(c1ccc(Cl)cc1)=NC(CC(N)=O)c1nnc(C)n1-2` (stereo not drawn), the “scaled lipid accumulation score” value under setting [2] is inactive: ≤ -0.009 and the “scaled lipid accumulation score” value under setting [1] is inactive: 0.039. Take `OC(c1ccccc1)(c1ccccc1)C1CCNCC1` [Azacyclonol]: the “scaled lipid accumulation score” value is inactive: 0.603. Besides, under setting [2], the “scaled lipid accumulation score” value was inactive: ≤ 0. Moreover, the “scaled lipid accumulation score” value under setting [1] is inactive: 0.393. As to `CC(O)CN1CCN(CC(=O)[O-])CCN(CC(=O)[O-])CCN(CC(=O)[O-])CC1.[Gd+3]` (stereo not drawn), the “scaled lipid accumulation score” value under setting [1] was inactive: ≤ 0. On to `COc1ccc(CC2c3cc(OC)c(OC)cc3CCN2C)cc1OC` (racemic) [Laudanosine (R,S)], for which the “scaled lipid accumulation score” value is inactive: ≤ 0. Take `Oc1ccc(Cl)cc1Cc1cc(Cl)ccc1O` [Dichlorophene]: under setting [1], the “scaled lipid accumulation score” value is inactive: ≤ 0. Consider `CCCCC/C=C\C/C=C\C/C=C\C/C=C\CCCC(=O)NCC(=O)O` [Arachidonoyl Glycine], for which the “scaled lipid accumulation score” value under setting [4] was inactive: 0.02. The same measure, in the same setting: with `CCCCC/C=C\C/C=C\C/C=C\C/C=C\CCCC(=O)NCC(=O)O` [N-arachidonoylglycine] the figure was inactive: ≤ -0.021. Turning to `Cc1ccc2c(c1)C1(CCN(CCc3nc(-c4ccccc4)oc3C)CC1)OC(=O)N2`, under setting [1], the “scaled lipid accumulation score” value was inactive: 0.228. `O=c1c2ccccc2[se]n1-c1ccccc1` [Ebselen]: where the note is “library stock concentration: 18.2 mM”, the “scaled lipid accumulation score” value was active: 0.952. On to `CCC1(C)CC(=O)NC(=O)C1` [Bemegride], for which the “scaled lipid accumulation score” value was inactive: ≤ 0. The “scaled lipid accumulation score” value under setting [2] was inactive: ≤ 0. For the same compound, the “scaled lipid accumulation score” value under setting [1] is inactive: ≤ -0.001. For `C[C@@]12C(=O)OC(=O)[C@]1(C)[C@H]1CC[C@@H]2O1` [Cantharidin], the “scaled lipid accumulation score” value is inactive: 0.374. The “scaled lipid accumulation score” value under setting [1] is inactive: ≤ 0 and inactive: 0.706. Moreover, the “scaled lipid accumulation score” value (library stock concentration: 25.5 mM) was inactive: 0.288. Regarding `COC(C)(C)CCC[C@H](C)C/C=C/C(C)=C/C(=O)OC(C)C` [Methoprene (s)], the “scaled lipid accumulation score” value under setting [1] was inactive: 0.104. Consider `CCCCC/C=C\C/C=C\C/C=C\C/C=C\CCCC(=O)NC1CC1` [Arachidonoyl Cyclopropylamide], for which the “scaled lipid accumulation score” value under setting [4] was inactive: ≤ 0. On to `CCCC(C)(COC(N)=O)COC(=O)NC(C)C` (stereo not drawn) [Carisoprodol], for which the “scaled lipid accumulation score” value was inactive: 0.078. Besides, the “scaled lipid accumulation score” value under setting [5] is inactive: ≤ -0.001. The “scaled lipid accumulation score” value under setting [1] was inactive: ≤ 0. `Cc1ccccc1-n1c(Cn2ncc3c(N)ncnc32)nc2cccc(C)c2c1=O`: the “scaled lipid accumulation score” value runs as follows: under setting [2], inactive: ≤ 0; under setting [1], inactive: ≤ 0. Turning to `O=C1C=C2C(=CCOC2O)O1` (stereo not drawn) [Patulin], under setting [1], the “scaled lipid accumulation score” value was active: 1.21. With `C/C(O)=C(\C#N)C(=O)Nc1cc(Br)ccc1Br`, the “scaled lipid accumulation score” value under setting [1] is inactive: ≤ 0. `CNCCCCCCN(C)N(O)N=O`: the “scaled lipid accumulation score” value under setting [4] was inactive: 0.005.

With `C[C@H]1CNCCc2ccc(Cl)cc21` [Lorcaserin HCl], the “scaled lipid accumulation score” value is inactive: 0.087 under setting [2] and inactive: 0.501 under setting [1]. Turning to `FC(F)(F)c1cccc(N2CCNCC2)c1`, the “scaled lipid accumulation score” value under setting [1] is inactive: 0.39. Turning to `C=C1C[C@@H]2[C@H](CC[C@]3(C)C(=O)CC[C@@H]23)[C@@]2(C)C=CC(=O)C=C12`, the “scaled lipid accumulation score” value under setting [1] is inactive: 0.378. Consider `C=C1C[C@@H]2[C@H](CC[C@]3(C)C(=O)CC[C@@H]23)[C@@]2(C)C=CC(=O)C=C12` [Exemestane], for which the “scaled lipid accumulation score” value is, setting by setting: under setting [2], inactive: ≤ 0; (library stock concentration: 6.7 mM) inactive: 0.074; under setting [1], inactive: ≤ 0. On to `COc1ccccc1N1CCNCC1` [1-(2-Methoxyphenyl)piperazine hydrochloride], for which, under setting [1], the “scaled lipid accumulation score” value is inactive: ≤ 0. Same read-out and setting: the figure for `CC(=O)[C@H]1CC[C@H]2[C@@H]3CC[C@H]4C[C@H](O)CC[C@]4(C)[C@H]3C(=O)C[C@]12C` [5alpha-Pregnan-3alpha-ol-11,20-dione] is inactive: ≤ -0.055.

For `CC(=O)[C@H]1CC[C@H]2[C@@H]3CC[C@H]4C[C@H](O)CC[C@]4(C)[C@H]3C(=O)C[C@]12C` [Alfaxalone], the “scaled lipid accumulation score” value was inactive: ≤ 0. Regarding `CC(=O)c1c(O)c(C)c(O)c(Cc2c(O)c3c(c(C(=O)/C=C/c4ccccc4)c2O)OC(C)(C)C=C3)c1O` [Rottlerin], the “scaled lipid accumulation score” value is, setting by setting: (library stock concentration: 9.7 mM) inactive: 0.015; under setting [1], inactive: 0.006. With `CCN(CC)CCO[C@H]1CC[C@@]2(C)C(=CC[C@@H]3[C@@H]2CC[C@]2(C)C(=O)CC[C@@H]32)C1.Cl`, under setting [1], the “scaled lipid accumulation score” value was active: 1.39. With `CCCCCCC(=O)O[C@H]1CC[C@H]2[C@@H]3CC(=O)C4=CC(=O)CC[C@]4(C)[C@H]3CC[C@]12C` [6-keto Testosterone Enanthate], under setting [4], the “scaled lipid accumulation score” value was inactive: 0.048. As for `c1ccc2c(c1)Sc1ccccc1N2CC1CN2CCC1CC2` (stereo not drawn), the “scaled lipid accumulation score” value under setting [1] was active: 1.03.

Take `CCCCC/C=C\C/C=C\C/C=C\CCCCCCC(=O)NCCO` [Dihomo-.gamma.-Linolenoyl Ethanolamide]: under setting [4], the “scaled lipid accumulation score” value is inactive: 0.003. As to `CCOP(=S)(OCC)Oc1ccc2c(C)c(Cl)c(=O)oc2c1`, under setting [1], the “scaled lipid accumulation score” value is inactive: ≤ 0. Still for that read-out and setting: the figure for `Cn1c2c(c3ccccc31)CCNCC2` is inactive: 0.326; for `O=C1C=CC(=O)C=C1` [p-Benzoquinone] it is inactive: 0.052.

Take `CN(C)[C@@H]1C(=O)C(C(N)=O)=C(O)[C@@]2(O)C(=O)C3=C(O)c4c(O)cccc4[C@@](C)(O)[C@H]3[C@H](O)[C@@H]12` [Oxytetracycline (Terramycin)]: the “scaled lipid accumulation score” value by setting is: under setting [2], inactive: ≤ 0; under setting [1], inactive: ≤ 0. `CN1C(=O)CCS(=O)(=O)C1c1ccc(Cl)cc1` (stereo not drawn) [Chlormezanone]: the “scaled lipid accumulation score” value was inactive: ≤ 0. Moreover, the “scaled lipid accumulation score” value under setting [2] was inactive: ≤ 0. Besides, the “scaled lipid accumulation score” value under setting [1] is inactive: ≤ 0 and inactive: 0.012. Consider `CO[C@@H]1C=C2CCN(C)[C@@H]2C2c3cc4c(cc3C(=O)OC21)OCO4` (stereo partly drawn) [Ungerine nitrate], for which the “scaled lipid accumulation score” value was inactive: ≤ 0.

For `O=P1(N(CCCl)CCCl)NCCCO1` (stereo not drawn) [Cyclophosphamide hydrate], the “scaled lipid accumulation score” value by setting is: (library stock concentration: 7.2 mM) inactive: 0.021; under setting [1], inactive: ≤ 0.

On to `O=P1(N(CCCl)CCCl)NCCCO1` (stereo not drawn) [Cytoxan], for which the “scaled lipid accumulation score” value under setting [1] was inactive: ≤ 0. Take `O=P1(N(CCCl)CCCl)NCCCO1` (stereo not drawn) [Cyclophosphamide monohydrate]: the “scaled lipid accumulation score” value reads like this: under setting [5], inactive: ≤ 0; under setting [1], inactive: ≤ 0. In the case of `CCCN[C@@H]1CCc2c(OC)cccc2[C@@H]1C` [(+)-AJ 76 hydrochloride], under setting [1], the “scaled lipid accumulation score” value was inactive: 0.202. For the compound `c1ccc2c(c1)sc1ccccc12` [Dibenzothiophene], the “scaled lipid accumulation score” value reads like this: under setting [2], inactive: ≤ 0; under setting [1], inactive: ≤ -0.001 and inactive: ≤ 0; (library stock concentration: 10.9 mM) inactive: ≤ -0.001. Turning to `CCCCC/C=C\C/C=C\C/C=C\C/C=C\CCCC(=O)NCCCC(=O)O` [N-Arachidonoyl-.gamma.-Aminobutyric Acid], the “scaled lipid accumulation score” value under setting [4] was inactive: 0.032.

As to `CCCn1c(C)c(C(=O)c2cccc3ccccc23)c2ccccc21`, the “scaled lipid accumulation score” value under setting [4] was inactive: ≤ 0. The same measure, in the same setting: the figure for `CCCCCCC(=O)O[C@H]1CC[C@H]2[C@@H]3C=CC4=CC(=O)CC[C@]4(C)[C@H]3CC[C@]12C` [.DELTA.6-Testosterone Enanthate] is inactive: ≤ 0.
